± gives the standard deviation of the averaged measurements. This is one part of the list.

The test system of this assay is PfAP2-EXP AP2 domain (GST-tagged). Kind of assay: gcPBM binding intensity (ln(normalized median fluorescence intensity)); higher = stronger DNA binding. The method, boiled down: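 After 1 h on an Agilent 4 × 180k array of primer-extended double-stranded 36-bp intergenic genomic probes and negative controls, bound GST-tagged P. falciparum DNA-binding domains were detected with Alexa488 anti-GST antibody and scanned at 488 nm. The domains had been expressed in E. coli, and binding took place in 1× PBS with 1% milk, 0.2 mg/ml BSA, 0.5% salmon testes DNA and 0.03% Triton X-100. Binding intensity is the highest Masliner-normalised natural-log median intensity across replicate spots of either probe orientation.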
As for “ATCATGTTATATACATGTACATATATATATATATAT [XGTACX_site1329]”, the “gcPBM binding intensity (ln)” value is 10.2 ± 0.3.
The same measure for “TATTTATTTATGTGTTGTACAAATAAATAGAGGTAT [XGTACX_site6408]”: 8.74 ± 0.47; for “ATATATTAAAAACGATGTACCCTGAACTAAAAAAAA [XGTACX_site4986]”: 8.65 ± 0.3; for “TATATGAAAATGTTCATACACACATAAAAAAAAAAA [CACACA_site3237]”: 8.46 ± 0.45.
The figure for “ATATATATATATATATGTACATATTTTAATAATTAA [XGTACX_site8549]” is 10.2 ± 0.23.
For the sequence “TGTTGTTACATATATACACACATATATATATTATAT [CACACA_site2397]”, the “gcPBM binding intensity (ln)” value was determined as 8.6 ± 0.41.
The same measure for “CGCGCACACGGACACACACACACACGGATATAAATA [CACACA_site7102]”: 8.69 ± 0.37.
In the case of “TGGTATATATTTCCTTGTACATATAATATATATTGT [XGTACX_site3961]”, the “gcPBM binding intensity (ln)” value was determined as 8.49 ± 0.57.
With “TAATATAGTATAGTATGTACATATAATTAGAATATT [XGTACX_site4053]”, the “gcPBM binding intensity (ln)” value is 8.76 ± 0.25.
Take “TATTAAAGGGGTTTCACACACATGTATAATTAATTT [CACACA_site200]”: the “gcPBM binding intensity (ln)” value amounted to 8.52 ± 0.49.
For “AACCATATTTAGATTACACACAGTTTAAATATTTTA [CACACA_site6712]”, the “gcPBM binding intensity (ln)” value came out at 8.31 ± 0.42.
As for “AATATGAACAGACACACACACACAAAAAAAAAAAAA [CACACA_site2012]”, the “gcPBM binding intensity (ln)” value worked out at 8.47 ± 0.53.
Regarding “AATTTGTTATGTATATGTACATAAATAGATATATGA [XGTACX_site3930]”, the “gcPBM binding intensity (ln)” value was determined as 8.62 ± 0.29.
Consider “TCTTGACGAAGTAGAAGGATATATATATAAAAAAAA [CACACA_negctrl_site641]”, for which the “gcPBM binding intensity (ln)” value was found to be 8.63 ± 0.49.
For the sequence “AGGAGGTCAGTTCACAGTACCCAGAAAACTCTACGA [XGTACX_site1992]”, the “gcPBM binding intensity (ln)” value turned out to be 8.46 ± 0.56.
The same measure for “TCCAGGTATTTATTCTGTACACATAAAACATTTTAT [XGTACX_site8472]”: 8.65 ± 0.33; for “TCGTCTCTTCTTGTTCTGTTTTAGAAGGCTATATAT [CACACA_negctrl_site180]”: 8.9 ± 0.46; for “TTCTTATCAAGAGAAAGTACATAAAAAATTAATAAG [XGTACX_site1821]”: 8.71 ± 0.46.
As for “CAAAACCTACATAACATACACACGCATATATAGAAT [CACACA_site2846]”, the “gcPBM binding intensity (ln)” value worked out at 8.67 ± 0.65.
Take “CATGCAATATTAAACACACACTCATATAGCACAATA [CACACA_site6182]”: the “gcPBM binding intensity (ln)” value was determined as 8.79 ± 0.092.
With “CCAACAAAAATAAGCACACACAAATATACATACATA [CACACA_site3606]”, the “gcPBM binding intensity (ln)” value was 8.84 ± 0.54.
With “ACAGTATCTGGTAGCTGTACGGATTGTAGAGAGTAG [XGTACX_site4872]”, the “gcPBM binding intensity (ln)” value was found to be 9.07 ± 0.49.
Regarding “AGAATAATAAAATGGGTGCAATAGTTTTTTTTTTTT [GTGCAC_site9823]”, the “gcPBM binding intensity (ln)” value worked out at 8.59 ± 0.13.
“TTGGATTTTCCATAATGTACACATAAAAGTGTTACA [XGTACX_site4544]”: the “gcPBM binding intensity (ln)” value came out at 8.185 ± 0.078.
As to “TTTTAAAAAATATAATATAATATAATATAAAATAAA [CACACA_negctrl_site154]”, the “gcPBM binding intensity (ln)” value turned out to be 8.12 ± 0.32.
As for “TAAGTATAAATATTTACACACATTTGTTTTTTTTTA [CACACA_site7731]”, the “gcPBM binding intensity (ln)” value is 8.35 ± 0.54.
Regarding “ATGTAAAACATAAAATGTACATATTATACAAACTAT [XGTACX_site5797]”, the “gcPBM binding intensity (ln)” value came out at 8.86 ± 0.42.
Turning to “AATAAAATAATAAAAGCACACAAGAATACAGACAAA [CACACA_site112]”, the “gcPBM binding intensity (ln)” value was 9.16 ± 0.37.
Consider “GGATAATATATTAGAACACACATATATCTGTAAAAA [CACACA_site4266]”, for which the “gcPBM binding intensity (ln)” value came to 8.54 ± 0.59.
The same measure for “TAATATAATATATGCACACAAATATGTATATATGTG [CACACA_site2134]”: 8.23 ± 0.2.
Regarding “CACAAAATAAATTAAACACACAACATCAGATATGTA [CACACA_site6529]”, the “gcPBM binding intensity (ln)” value is 8.39 ± 0.47.
The figure for “TAATATACATAATAATGTACATATTTTCATATATAC [XGTACX_site6913]” is 8.23 ± 0.38.
For “AACTATTTTATTATATGTACTTACGAATTTATAAAA [XGTACX_site5262]”, the “gcPBM binding intensity (ln)” value is 8.44 ± 0.4.
Take “AATGTAGGTTTATTTACACACAAATATAAATATATA [CACACA_site1523]”: the “gcPBM binding intensity (ln)” value was 8.25 ± 0.33.
“TGTGTTGTAACAAAATGTACGAGCTTGATGTAGAAT [XGTACX_site2293]”: the “gcPBM binding intensity (ln)” value was 9.05 ± 0.61.
On to “ATAAACTGATGTGTATGTACACATGTAATAATAAAT [XGTACX_site7649]”, for which the “gcPBM binding intensity (ln)” value is 8.68 ± 0.39.
As for “TATTTTTCTTTATTGGTACACACGAAAAAAAAATTG [CACACA_site3054]”, the “gcPBM binding intensity (ln)” value was found to be 8.47 ± 0.28.
On to “AAAATCCAGTTTTCAAAATTGAACAAAAAAAAAATA [GTGCAC_negctrl_site542]”, for which the “gcPBM binding intensity (ln)” value was found to be 8.39 ± 0.55.
“TCTAAGTATAAAGACACACAGAATAAAAAAAAATAT [CACACA_site2367]”: the “gcPBM binding intensity (ln)” value was determined as 8.7 ± 0.52.
With “AAAAAAAAATTTAAGTGTACATTCCATTTTAGTTTA [XGTACX_site5286]”, the “gcPBM binding intensity (ln)” value is 8.16 ± 0.38.
As for “AAAATATATATGTATGTTTATATGTTTATATATATT [XGTACX_negctrl_site337]”, the “gcPBM binding intensity (ln)” value amounted to 8.18 ± 0.49.
The figure for “AAGAAGCATAAATGTACACACATATTTATATATCAA [CACACA_site6743]” is 8.37 ± 0.38.
With “TATTTAATATATTTATGTACATATTTATTTATTATT [XGTACX_site524]”, the “gcPBM binding intensity (ln)” value is 8.56 ± 0.31.
As to “CAACACTTATTGAAACGTACGCATATAGTTTCTTTT [XGTACX_site8960]”, the “gcPBM binding intensity (ln)” value stood at 8.59 ± 0.31.
Regarding “AAAGGATATGGACACACACACACATATATATATATA [CACACA_site8686]”, the “gcPBM binding intensity (ln)” value came out at 10 ± 0.42.

The values are drawn from the supplement of paper PMC11417369.
